Consider 70 compounds from PubChem BioAssay AID488969 (Vanderbilt High Throughput Screening Facility, 2010).

The full ranking holds about 110,000 compounds; the median of “z-score” is about -0.1, and the highest 2% start at about 2. Some of the results follow. Calls of active or inactive are those of the source.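 The calls were made as follows: active = z-score in the third read window above 3 or below -3; inactive = the rest.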

The target of this test is Metabotropic glutamate receptor 8 (Rattus norvegicus) (UniProt P70579). Kind of test: rat mGluR8 modulators via GIRK flux, primary screen, cell-based, thallium flux, HTS (AID 488969). As to conditions: HEK293 rat mGluR8, GIRK (G protein-gated inwardly rectifying potassium channel) thallium flux, FluoZin2; at 10 µM; stronger effect = higher value; submaximal glutamate (EC20) added with thallium.
Sequence of UniProt P70579 (P70579 whole entry, looked up): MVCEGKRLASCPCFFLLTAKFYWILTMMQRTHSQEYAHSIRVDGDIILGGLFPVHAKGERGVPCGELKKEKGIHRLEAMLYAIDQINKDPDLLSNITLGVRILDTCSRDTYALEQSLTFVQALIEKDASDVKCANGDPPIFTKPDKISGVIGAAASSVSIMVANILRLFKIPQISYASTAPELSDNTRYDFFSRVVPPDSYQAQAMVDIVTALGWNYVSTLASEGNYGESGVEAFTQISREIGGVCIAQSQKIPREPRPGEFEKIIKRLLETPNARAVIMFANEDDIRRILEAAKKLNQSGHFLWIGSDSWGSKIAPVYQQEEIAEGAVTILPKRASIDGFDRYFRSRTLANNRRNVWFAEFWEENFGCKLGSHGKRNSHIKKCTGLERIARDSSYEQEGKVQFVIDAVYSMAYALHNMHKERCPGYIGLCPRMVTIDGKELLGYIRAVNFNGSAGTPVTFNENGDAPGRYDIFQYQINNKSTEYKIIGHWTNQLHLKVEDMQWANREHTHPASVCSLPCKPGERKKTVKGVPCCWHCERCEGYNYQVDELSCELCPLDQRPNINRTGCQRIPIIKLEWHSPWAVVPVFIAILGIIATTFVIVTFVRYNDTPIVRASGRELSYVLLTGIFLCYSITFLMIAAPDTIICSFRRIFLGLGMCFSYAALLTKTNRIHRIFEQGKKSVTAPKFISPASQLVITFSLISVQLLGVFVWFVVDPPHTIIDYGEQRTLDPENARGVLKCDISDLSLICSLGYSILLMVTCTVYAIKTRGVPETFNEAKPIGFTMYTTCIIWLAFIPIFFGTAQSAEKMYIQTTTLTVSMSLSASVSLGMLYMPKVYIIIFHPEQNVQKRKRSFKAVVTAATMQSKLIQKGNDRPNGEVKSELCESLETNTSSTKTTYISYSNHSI
In turn, `Cn1nnc(C(O)CN2CCOCC2)n1` (stereo not given) came in with a z-score of 0.423.
Regarding `Cc1ccc(CC(=O)NCCCc2ccccc2)cc1`, the z-score is -0.276.
Then `COc1ccc(C(=O)Nc2ccc(S(=O)(=O)N3CCOCC3)cc2)cc1OC`, with 0.18.
Regarding `CN(CC(=O)NCc1ccco1)S(=O)(=O)c1cccc2cccnc12`, the z-score is -0.183.
In the case of `CCOC(=O)Cn1c(C)c(C#N)c2ccccc21`, the z-score is -0.381.
Then `CCOc1ccc(-c2noc(=O)[nH]2)cc1`, with 0.27; and `COc1ccc(NC(=O)CSc2nnc(C)n2Cc2ccccc2)cc1`, with -0.441; and `CCc1ccc(OCC(=O)N/N=C(\C)c2ccc(OC(F)F)cc2)cc1`, with -0.207.
As for `CCOC(=O)Nc1ccc(NS(=O)(=O)c2ccc(C)cc2)cc1`, the figure is -0.137; as for `COC(=O)CCc1nc2ccccc2[nH]c1=O`, -0.153.
Then `CCOc1ccc(S(=O)(=O)N2CCCC2)cc1`, with -0.243; and `C=CCn1c(SCC(=O)Nc2ncc(Cc3ccc(Br)cc3)s2)nnc1-c1ccncc1`, with -0.195.
Regarding `CCCC(=O)Nc1cccc(NC(=O)c2ccc3c(c2)OCCO3)c1`, the z-score was -0.807.
`CCOC(=O)c1c(NC(=O)CSc2nnc(-c3ccc(C)cc3)o2)sc(C(C)=O)c1C`: the z-score was -0.117.
As for `O=C(Nc1nc(-c2cccs2)cs1)c1cc2ccccc2oc1=O`, the figure is 0.0525; as for `Nc1c(N2CCCC2)cc(Cl)c2nonc12`, 0.00595.
As for `O=C1N(c2cccc(Cl)c2)C(c2ccccc2)N2CCCN12` (stereo not given), the z-score was -0.104.
As for `CCC(=O)Nc1cc(-c2nn(C)c(=O)c3ccccc23)ccc1N1CCOCC1`, the figure is -0.532.
Then `Cc1c(C#N)c(N=CN(C)C)c(C(=O)c2ccc(Br)cc2)n1-c1ccc(Cl)cc1`, with -1.97.
As for `CC(C)[C@H](NC(=O)c1ccccc1Cl)C(=O)OCc1cc([N+](=O)[O-])cc2c1OCOC2`, the figure is -0.769.
In turn, `Cc1nn(Cc2ccccc2)c(C)c1NC(=O)Cn1nc([N+](=O)[O-])c(Cl)c1C` had a z-score of 0.325.
As for `CC(C)(C)S(=O)(=O)c1nc2ccccc2s1`, the figure is 0.279; as for `Cc1c(Cl)c([N+](=O)[O-])nn1CC(=O)NC12CC3CC(CC(C3)C1)C2`, -0.145.
As for `CC1Oc2ccccc2C=C1/C=N/NC(=O)c1ccccc1` (stereo not given), the figure is 1.9; as for `COc1ccc(-n2nnc3c(SCC(=O)Nc4ccc5c(c4)OCCO5)ncnc32)cc1`, 0.658.
As for `O=C(Nc1ccc(C#Cc2ccccc2)cc1)C1CC1`, the figure is 0.253; as for `COCCNC(=S)NC1CC2CCCC(C1)N2Cc1ccco1` (stereo not given), -0.143; as for `COc1ccc([C@H]2[C@H](C(=O)OC(C)(C)C)N3N=Cc4ccccc4C3C23C(=O)c2ccccc2C3=O)cc1OC` (stereo not given in full), -0.258.
For the compound `O=c1oc2ccccc2cc1-c1csc(NN=C2CCCC2)n1`, the z-score is -0.3.
For the compound `Cc1ccc(NC(=O)c2sccc2C)cc1S(=O)(=O)N(C)C`, the z-score is -0.581.
Then `Cc1cc(Cl)ccc1OCCCC(=O)NCCN1C(=O)S/C(=C\c2cccnc2)C1=O`, with 0.246.
As for `Cc1ccccc1NC(=O)c1ccc2c(c1)C(=O)N(CCC(C)C)C2=O`, the figure is 0.778; as for `Oc1ccc(CNCC2COc3ccccc3O2)cc1` (stereo not given), 0.153.
`Cn1c(=O)c2[nH]c(CN(Cc3ccccc3)Cc3ccccc3)nc2n(C)c1=O`: the z-score stood at 0.126.
Then `Cc1cc(N)c(NC2=CC(=O)CC(C)(C)C2)cc1C`, with 0.101.
With `CCOC(=O)C1=C(C)OC(N)=C(C#N)C1c1cc2ccccc2nc1N1CCCCC1` (stereo not given), the z-score was determined as 0.0918.
As for `COC(=O)c1ccccc1NC(=O)C1CC(=O)N(c2ccc(F)cc2)C1` (stereo not given), the figure is 2.15; as for `O=C(NCC1COc2ccccc2O1)c1ccc(NC(=O)c2ccco2)cc1` (stereo not given), -0.221.
As for `CCOC(=O)Cn1c(=O)oc2cc(S(=O)(=O)NCC3CCCO3)ccc21` (stereo not given), the figure is 0.198; as for `Cc1onc(-c2c(F)cccc2Cl)c1C(=O)OCn1nnc2ccccc2c1=O`, -1.21.
As for `COc1cc(NS(=O)(=O)c2ccc3c(c2)n(C)c(=O)n3C)cc(OC)c1`, the figure is -0.0546; as for `Clc1ccc(CO/N=C/c2c(-c3ccccc3)nc3n2CCS3)c(Cl)c1`, -0.1; as for `Cc1ccc(S(=O)(=O)NNC(=O)C2Cc3c(ccc4ccccc34)O2)cc1` (stereo not given), 0.308.
In the case of `O=C(NCCCN1CCOCC1)c1coc2ccccc2c1=O`, the z-score was -0.654.
Then `COc1ccc(/C=N/NC(=O)c2nc(Cl)c(Cl)c(N)c2Cl)cc1COc1ccc(F)cc1F`, with -0.274; and `CC1CCN(CCCNC(=O)C2CC(=O)N(C3CCCCCC3)C2)CC1` (stereo not given), with 0.0065; and `COCCOCCn1c(CCCO)nc2ccccc21`, with -0.12.
On to `Fc1ccc(CSc2nc3ccccc3[nH]2)c2ccccc12`, for which the z-score is active: 10.7.
As for `CC1CN(S(=O)(=O)c2ccc(Cl)c(C(F)(F)F)c2)CC(C)O1` (stereo not given), the figure is -0.506.
Then `CC(=O)Nc1cc2c(cc1C(C)=O)OCCO2`, with -0.0455; and `Fc1ccc(-n2c(-c3ccc4c(c3)OCO4)n[nH]c2=S)cc1Cl`, with -0.0511; and `O=C1c2ccccc2C(O)N1CCN1CCOCC1` (stereo not given), with -1.65.
Then `CCn1ncc(Br)c1C(=O)Nc1sc2c(c1C(=O)OC)CCC2`, with -0.118; and `C/C(=N\NC(=O)CNc1ccccc1Cl)C(C)(C)C`, with -0.712; and `CCOc1ccc(NS(=O)(=O)N(C)C)cc1`, with -0.0607.
Take `CCOC(=O)Cn1c2c(c(=N)c3ccccc31)CCC2`: the z-score was -0.132.
Then `CC1CCc2sc(C(=O)Nc3nnc(SCc4ccc(F)cc4)s3)cc2C1` (stereo not given), with -0.825.
Then `O=C(O)C1C2CCC(O2)C1C(=O)NCCC1=CCCCC1` (stereo not given), with 1.21; and `Cc1cccc(C(=O)N2CCc3cc(-c4nc(NC(=O)Cn5nnc6ccccc6c5=O)sc4C)ccc32)c1`, with -0.116; and `CCn1c2ccccc2c2cc(NC(=O)c3ccc(Br)o3)ccc21`, with -0.12.
As for `COCCCNC(=S)N1CCN(c2ccc([N+](=O)[O-])cc2)CC1`, the z-score is -0.289.
As for `COc1ccc(Cn2nnnc2C(c2cc3ccc(OC)cc3[nH]c2=O)N2CCC(C)CC2)cc1` (stereo not given), the figure is -0.0941; as for `COc1cccc(C(C2=C(O)CC(C)(C)CC2=O)C2C(=O)CC(C)(C)CC2=O)c1` (stereo not given), -0.0504; as for `N#C/C(=C/c1ccc2c(c1)OCO2)C(=O)NCCc1c[nH]c2ccccc12`, -0.115.
As for `COC(=O)C(NC(=O)c1ccccc1)(Nc1cc(C)cc(C)n1)C(F)(F)F` (stereo not given), the figure is -0.0146.
Then `S=C(NN=C1C2CC3CC(C2)CC1C3)Nc1ccccc1`, with active: 11.7; and `CCC(C)n1c(S(=O)(=O)O)nc2ccccc21` (stereo not given), with 1.41.
As for `COc1ccc(C2Nc3ccccc3C(=O)N2O)cc1OC` (stereo not given), the z-score is -0.145.
Then `COc1ccc(N(CC(=O)NCc2ccccc2OC)S(=O)(=O)c2c(C)nn(C)c2C)cc1`, with -0.153; and `CCOc1cc(/C=N/NC(=O)c2ccncc2)ccc1OC(=O)c1ccc([N+](=O)[O-])cc1`, with -0.0809.
